According to PubChem BioAssay AID540317 (National Center for Advancing Translational Sciences (NCATS), 2011):
In all, about 390,000 compounds went through this assay and about 2,200 (0.56%) were called active. The inconclusive results got no clear call from the source; some entries with a clear call stand among them for comparison. Calls come from the whole dose curve; as a rule, active = well fitted inhibition curve with a large enough effect; inconclusive = small, poorly fitted or top-dose-only effect; inactive = no such curve, though single readings can be large or run the other way. Potencies beside an inconclusive call are fits to weak or partial responses and may not hold up.

Target: Chromobox protein homolog 1 (Homo sapiens) (UniProt P83916)
Experiment: HTS for Inhibitors of HP1-beta Chromodomain Interactions with Methylated Histone Tails; note: nearly all actives have a fitted effect of over 70% in size
Settings: AlphaScreen HP1-beta / biotin-H3K9me3 peptide binding; series mostly up to 114 µM
Outline: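 AlphaScreen: HP1-beta (50 nM) preformed 30 min with biotin-H3(1-18)K9me3 peptide (50 nM) in PBS pH 7.4, 0.01% Tween-20. Compound added for 30 min at RT, then streptavidin donor/nickel chelate acceptor beads (10 ug/mL) for 30 min.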
Potency is the fitted concentration of half-maximal effect; tags give direction and shape of the fitted curve.

UniProt P83916, sequence (P83916 whole entry, looked up): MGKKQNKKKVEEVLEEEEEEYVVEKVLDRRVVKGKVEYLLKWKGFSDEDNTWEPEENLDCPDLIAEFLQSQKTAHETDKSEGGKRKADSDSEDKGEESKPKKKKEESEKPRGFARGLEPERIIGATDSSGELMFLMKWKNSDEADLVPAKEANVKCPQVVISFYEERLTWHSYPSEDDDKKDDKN

Structure (SMILES) | Potency
COCCN=c1scc(-c2cc(OC)c(OC)c(OC)c2)n1/N=C/c1c(C)[nH]c2ccccc12 | inconclusive: 28.2 µM [inhibitor, partial curve]
O=C(CSc1nc2ccc(Cl)cc2[nH]1)Nc1ccc2[nH]c(=O)[nH]c2c1 | inactive
C/C(=N\Nc1ccc(C(=O)c2c(C)cc3ccccn23)cc1[N+](=O)[O-])c1ccc(O)cc1 | inconclusive: 7.08 µM [inhibitor, partial curve]
CCOC(=O)N1CCN(C(=S)NC2CCCCC2)CC1 | inactive
COc1ccc(C(=S)N(C)C)cc1OC | inconclusive: 3.98 µM [inhibitor, full curve, poor fit]
CNC(=S)N1CCN(c2nc(-c3cccc(OC)c3)cs2)CC1 | inconclusive: 39.8 µM [inhibitor, partial curve, poor fit]
Cc1[nH]c2ccccc2c1C(C#N)(C#N)C1C(=O)c2ccccc2C1=O | active: 11.2 µM
COc1ccc2cc1Oc1ccc(cc1)CC1c3c(cc(OC)c4c3Oc3cc5c(cc3O4)CCNC5C2)CCN1C (stereo not given) | inconclusive: 15.8 µM [inhibitor, full curve]
CCOC(=O)c1cc(-c2ccc(N3CCOCC3)cc2)nn1-c1ccccc1C(=O)O | inconclusive: 20 µM [inhibitor, full curve, poor fit]
CS(=O)(=O)N(CC(=O)N1CCOCC1)c1cccc(Cl)c1Cl | inconclusive: 28.2 µM [inhibitor, single point]
NS(=O)(=O)c1ccc(N2CCN(C(=O)c3ccco3)CC2)nc1 | inactive
O=C(c1cccc(F)c1)N1CCN(CC2CC3C=CC2C3)CC1 (stereo not given) | inconclusive: 25.1 µM [inhibitor, partial curve, poor fit]
O=C(C[C@@H]1C/C=C\C[C@H](Cc2ccc(F)cc2)C(=O)OCCNC1=O)N[C@H](CO)Cc1ccccc1 | inactive
CCCCCC(=O)NNC(=S)NC(=O)c1ccc([N+](=O)[O-])cc1 | inconclusive: 6.31 µM [inhibitor, partial curve]
COc1cc2nc(/C=C/c3ccc(N(C)C)cc3)sc2cc1SC | inconclusive: 39.8 µM [inhibitor, partial curve]
Cn1c(-c2ccccc2)cnc1NCc1cc(Cl)ccc1O | inconclusive: 56.2 µM [inhibitor, partial curve, poor fit]
CCN(CC)c1ccc(NC(=O)Nc2ccccc2C(F)(F)F)cc1 | inactive
CCOc1ccc(/C=N/NC(=O)CN2CCCCCCC2)cc1 | inconclusive: 25.1 µM [inhibitor, full curve]
Cc1ccc(Oc2cc(NN3CCCCC3)c([N+](=O)[O-])cc2[N+](=O)[O-])c(Cl)c1 | inconclusive: 12.6 µM [inhibitor, full curve, poor fit]
CCOC(=O)C1CCCCN1Cc1ccc(C(F)(F)F)cc1 (stereo not given) | inconclusive: 14.1 µM [inhibitor, partial curve, poor fit]
COc1ccc(N2CCN(c3nc(-c4cccs4)nc4ccccc34)CC2)cc1 | inconclusive: 17.8 µM [inhibitor, partial curve, poor fit]
Cc1cc(C(=O)N2CCCC(Nc3ccc(C(C)C)cc3)C2)nn1C (stereo not given) | inactive
CC(=O)Nc1ccc(S(=O)(=O)NCCC(=O)OC(C)C(=O)NC2(C#N)CCCCC2)cc1 (stereo not given) | inactive
CCOC(=O)c1c(N2C(=O)C=CC2=O)sc(C)c1C | inconclusive: 22.4 µM [inhibitor, single point]

Structure (SMILES) | Potency
O=C(NC(=S)Nc1ccccc1C(=O)O)c1ccc(-c2ccc(Br)cc2)o1 | inconclusive: 17.8 µM [inhibitor, full curve]
NCc1ccccc1 | inactive
N#Cc1c(/N=C/c2ccco2)sc2c1CCCCC2 | inconclusive: 25.1 µM [inhibitor, single point]
CN1CCCN(Cc2cccc3ccccc23)CC1 | inconclusive: 14.1 µM [inhibitor, partial curve, poor fit]
O=C(Nc1cccc2ncccc12)c1ccc(Cl)cc1 | inconclusive: 3.55 µM [inhibitor, full curve]
CCCCNS(=O)(=O)c1ccc2nc(SCC(=O)Nc3ccccc3Cl)[nH]c2c1 | inactive
CCOC(=O)c1sc(NC(=O)C2CC(=O)N(c3ccc(C)cc3)C2)nc1C (stereo not given) | inconclusive: 79.4 µM [inhibitor, partial curve, poor fit]
CC1CCN(CCOc2ccccc2-c2ccccc2)CC1 | inconclusive: 15.8 µM [inhibitor, full curve]
O=C(/C=N/O)NCCCN1CCOCC1 | inactive
CC1(OC(=O)C2CCCC2)C(=O)C=C2C=C(c3ccsc3)N(Cc3ccc4c(c3)OCO4)C=C2C1=O (stereo not given) | inconclusive: 31.6 µM [inhibitor, partial curve]
COc1ccc(-n2c(=O)c3c(c4cc(OC)ccc4n3C)n(CCC(C)C)c2=O)cc1 | inactive
CCOC(=O)c1cc2c(ccn2C)n1Cc1ccc(C#N)cc1 | inconclusive: 22.4 µM [inhibitor, full curve]
CCN1CCSc2ccc(C(=O)NCc3ccccc3Br)cc21 | inactive
CCOC(=O)C1CCCN(Cc2ccc(OCc3ccccc3)cc2)C1 (stereo not given) | inconclusive: 28.2 µM [inhibitor, single point]
CCOc1c(CNc2nnnn2C)cccc1OC | inactive
CN(C)c1ccc(/C=N/N2C(=S)SC(C)(C)C2N(O)C(=O)Nc2ccc([N+](=O)[O-])cc2)cc1 (stereo not given) | inconclusive: 35.5 µM [inhibitor, partial curve, poor fit]
Nc1ccc(C(=O)N2CCN(S(=O)(=O)c3ccc(Cl)cc3)CC2)cc1[N+](=O)[O-] | inconclusive: 39.8 µM [inhibitor, single point]
Cc1cc(C)c2oc(-c3ccc(C)c(NC(=O)/C=C/c4ccco4)c3)nc2c1 | inconclusive: 35.5 µM [inhibitor, partial curve]
CC1CC(C)CN(S(=O)(=O)c2cc3c(cc2Cl)NC(=O)CO3)C1 (stereo not given) | inactive
Nc1nc(C2CC2)c(Sc2sc(N)nc2C2CC2)s1 | inconclusive: 79.4 µM [inhibitor, single point]
Cc1cccc(-n2ncc3c2CCCC3NC(=O)CCN2Cc3ccccc3C2=O)c1C (stereo not given) | inactive
COc1ccccc1NCC(=O)c1ccc(Cl)cc1 | inconclusive: 50.1 µM [inhibitor, partial curve]
O=C(CCN1C(=O)c2ccncc2C1=O)Nc1ccc2c(c1)OCCO2 | inconclusive: 39.8 µM [inhibitor, single point]
Cc1ccc(NC(=O)c2nnn(CC(=O)Nc3ccc(C)c(Cl)c3)c2N)c(C)c1 | inactive

Structure (SMILES) | Potency
O=C(NCc1c[nH]c2ccccc12)c1ccccc1 | inactive
Cc1ccc(NC(=O)CSc2nnc(NC(=O)CN3CCOCC3)s2)cc1 | inactive
CCC(CC)c1nnc(NC(=O)COc2ccc3c(c2)OCO3)s1 | inconclusive: 44.7 µM [inhibitor, partial curve, poor fit]
COc1ccc(CCNC(=O)C(=O)NCC(c2ccco2)S(=O)(=O)c2ccccc2)cc1 (stereo not given) | inactive
COc1cccc(CN2CCNC(=O)C2CC(=O)NCc2cn3ccccc3n2)c1OC (stereo not given) | inactive
O=C(CN1CCC(Cc2ccccc2)CC1)N1CCc2ccccc2C1 | inconclusive: 17.8 µM [inhibitor, full curve]
COc1cc(CNc2ccc(CNc3ncn[nH]3)cc2)ccc1OCc1ccccc1 | inconclusive: 39.8 µM [inhibitor, single point]
C=CCNCc1cccn1-c1sc2c(c1C#N)CCCC2 | inconclusive: 79.4 µM [inhibitor, single point]
CN(c1ccccc1)c1ccc(/C=C(/CCC(=O)O)c2nc3ccccc3s2)cc1[N+](=O)[O-] | inconclusive: 20 µM [inhibitor, full curve]
O=C(CSc1oc(-c2ccc(F)cc2)nc1S(=O)(=O)c1ccc(F)cc1)NCC1CCCO1 (stereo not given) | inactive
CC1CC(C)CN(CCOc2ccc(Br)cc2)C1 (stereo not given) | inconclusive: 15.8 µM [inhibitor, full curve, poor fit]
CCOc1ccccc1CN1CCc2nc(Nc3ccc4c(c3)OCCO4)ncc2C1 | inconclusive: 50.1 µM [inhibitor, partial curve]
OC(COc1ccccc1Br)CN1CCNCC1 (stereo not given) | inactive
COc1ccc(OC)c(NC(=O)CSc2nnc(CNC(=O)c3cc(OC)c(OC)c(OC)c3)o2)c1 | inactive
CN1CCN(c2ccccc2NC(=O)c2ccc(-c3cccc(Cl)c3)o2)CC1 | inconclusive: 56.2 µM [inhibitor, single point]
COc1ccccc1Nc1c([N+](=O)[O-])cc(C)cc1[N+](=O)[O-] | inconclusive: 7.08 µM [inhibitor, partial curve, poor fit]
Cc1occc1C(=O)N1CCN(c2ccc(Cl)cc2)CC1 | inactive
COc1cc(OC)c(OC)cc1CN1CCC(O)CC1 | inconclusive: 31.6 µM [inhibitor, partial curve]
Cc1cccc(-n2ccnc2SCC(=O)Nc2cccc3ccccc23)c1C | inconclusive: 12.6 µM [inhibitor, partial curve]
COc1ccc(-c2csc(/C(C#N)=C\c3ccc(O)c([N+](=O)[O-])c3)n2)cc1OC | inconclusive: 22.4 µM [inhibitor, partial curve, poor fit]
Cc1ccc2nc(-c3ccccn3)c(NC3CCCC3)n2c1 | inconclusive: 50.1 µM [inhibitor, partial curve]
O=C(c1cccc(S(=O)(=O)N2CCN(c3ccc(F)cc3)CC2)c1)N1CCCC(C(F)(F)F)C1 (stereo not given) | inconclusive: 89.1 µM [inhibitor, single point]
